# Source: PubChem BioAssay AID2147 (National Center for Advancing Translational Sciences (NCATS), 2009)
# The whole screen tested about 230,000 compounds, of which about 3,600 (1.6%) were called active. The shares of active, inactive and inconclusive entries below differ from those in the screen. Calls come from the whole dose curve; as a rule, active = well fitted inhibition curve with a large enough effect (not every such curve was filed as active); inconclusive = small, poorly fitted or top-dose-only effect, or another doubt; inactive = no such curve, though single readings can be large or run the other way. Potencies of inconclusive entries are doubtful fits and often do not repeat.
# Target: Lysine-specific demethylase 4E (Homo sapiens) (UniProt B2RXH2)
# Experiment: qHTS Assay for Inhibitors of Human Jumonji Domain Containing 2E (JMJD2E)
# Details: JMJD2E catalytic domain, FDH-coupled NADH fluorescence (FDH is formaldehyde dehydrogenase); series mostly up to 57.1 µM; activity change, negative = inhibition: at the top concentration
# Note: nearly all actives have a fitted effect of over 50% in size.
# Potency is the fitted concentration of half-maximal effect; tags give direction and shape of the fitted curve.
# 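Throughout, for activity change, negative = inhibition: 0% = wells with enzyme and -100% = buffer wells without enzyme.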
# Chain of UniProt B2RXH2 (B2RXH2 whole entry, looked up, the tested form may be a part): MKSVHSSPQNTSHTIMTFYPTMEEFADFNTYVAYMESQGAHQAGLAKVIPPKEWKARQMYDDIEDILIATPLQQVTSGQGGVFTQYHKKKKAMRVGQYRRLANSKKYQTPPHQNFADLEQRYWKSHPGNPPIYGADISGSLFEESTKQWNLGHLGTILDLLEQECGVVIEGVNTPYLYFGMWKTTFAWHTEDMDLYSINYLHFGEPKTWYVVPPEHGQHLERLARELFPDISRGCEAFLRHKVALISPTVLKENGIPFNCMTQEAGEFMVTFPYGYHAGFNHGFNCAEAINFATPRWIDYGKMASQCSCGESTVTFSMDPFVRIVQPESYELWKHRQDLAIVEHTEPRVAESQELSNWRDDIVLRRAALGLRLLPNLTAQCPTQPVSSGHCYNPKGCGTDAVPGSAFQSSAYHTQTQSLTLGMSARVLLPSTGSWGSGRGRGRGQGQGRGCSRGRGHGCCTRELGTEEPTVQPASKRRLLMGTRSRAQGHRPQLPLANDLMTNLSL
SMILES,Potency,"activity change, negative = inhibition"
COc1ccccc1NC(=S)NNC(=O)c1cc(C)n(C)n1,active: 17.8 µM,–
C=CCn1cnc2c(c1=O)c1nc3ccccc3nc1n2/N=C/c1cccc(OC)c1,"inconclusive: 25.1 µM [inhibitor, single point]",–
CCOc1cc(S(=O)(=O)NCCc2ccccc2C)c(OCC)cc1-n1cnnn1,"inconclusive: 35.5 µM [inhibitor, partial curve]",–
CCc1cccc(CC)c1NC(=O)CN1CCN(c2ccccc2)CC1,"inconclusive: 35.5 µM [inhibitor, single point]",–
COc1ccc(OCc2n(CC(=O)OC3CC(C)CCC3C(C)C)c3ccccc3[n+]2C)cc1 (stereo not given),–,inactive: 3.52%
CCOc1cccc(C(=O)N2CCCCC2c2cccnc2)c1 (stereo not given),"inconclusive: 39.8 µM [inhibitor, single point]",–
COc1ccc(-c2noc(CCN3C(=O)c4ccccc4C3=O)n2)cc1OC,"inconclusive: 39.8 µM [inhibitor, single point]",–
CCCC(c1nnnn1Cc1cccs1)N1CCN(C2CCCC2)CC1 (stereo not given),–,inactive: 1.94%
c1ccc2c(N3CCCCC3)nc(N3CCOCC3)nc2c1,"inconclusive: 28.2 µM [inhibitor, partial curve]",–
NC(=S)N/N=C/c1ccc(-c2cc(Cl)cc(Cl)c2)o1,–,inactive: -15.4%
Nc1nnc(-c2cccc(F)c2)s1,"inconclusive: 25.1 µM [inhibitor, single point]",–
COC(=O)c1ccc2c(=O)n(CCCCCC(=O)O)c(=S)[nH]c2c1,"inconclusive: 39.8 µM [inhibitor, single point]",–
COc1ccc(CCN(C)c2ccc(S(=O)(=O)N3CCCC3)cn2)cc1OC,"inconclusive: 39.8 µM [inhibitor, single point]",–
CCOC(=O)CN1NC2(CCCCCC2)NC1=S,"inconclusive: 31.6 µM [inhibitor, single point]",–
O=C(O)/C=C\C(=O)Nc1ccc(Oc2ccccc2)cc1,–,inactive: -11.2%
Cc1ccc2nc(N(CCN(C)C)C(=O)/C=C/c3cccs3)sc2c1,"inconclusive: 39.8 µM [inhibitor, single point]",–
CCOC(=O)c1[nH]c2ccccc2c1NC(=S)Nc1cccc(C)c1C,"inconclusive: 25.1 µM [inhibitor, single point]",–
O=C(CSc1n[nH]c(-c2ccc(S(=O)(=O)N3CCCCC3)cc2)n1)Nc1nccs1,"inconclusive: 10 µM [inhibitor, partial curve]",–
CCN(CC)CCn1c(-c2ccccc2)nc2c(NCc3ccccc3)nc(C)nc21,"inconclusive: 31.6 µM [inhibitor, partial curve]",–
O=C(Nc1ccccc1)Nc1nnc(CSCc2ccccc2Cl)s1,–,inactive: 14.2%
CCCNC(=O)OCc1cccnc1Sc1ccc(C)cc1,–,inactive: -3.2%
CCCCC(=O)N1CCCC(C(=O)OCC)C1 (stereo not given),–,inactive: 1.11%
CCCn1nc2cc(C(=O)NC3CCCc4ccccc43)ccc2c1OCC (stereo not given),"inconclusive: 25.1 µM [inhibitor, partial curve]",–

SMILES,Potency,"activity change, negative = inhibition"
O=C(N/N=C/C=C\c1ccco1)c1ccccn1,"inconclusive: 39.8 µM [inhibitor, single point]",–
Cc1cc(C)nc(N2CCCC(C(=O)NNC(=O)c3ccncc3)C2)n1 (stereo not given),"inconclusive: 28.2 µM [inhibitor, single point]",–
COC(=O)Cc1cc(=O)n2[nH]c(C(F)(F)F)nc2n1,"inconclusive: 39.8 µM [inhibitor, single point]",–
C=CCNC(=S)NNC(=O)c1cccn(Cc2ccc(Cl)cc2)c1=O,"inconclusive: 39.8 µM [inhibitor, single point]",–
CCn1cc(C(=O)NCc2ccco2)c(=O)c2cc(S(=O)(=O)N3CCCC3)ccc21,–,inactive: -9.93%
Fc1ccccc1SCc1nnc(-c2ccccc2Br)o1,–,inactive: -1.64%
COc1ccc(C2c3c4c(n(C)c3CCN2C)CCN(C)C4c2ccc(OC)cc2)cc1 (stereo not given),"inconclusive: 1.41 µM [inhibitor, full curve]",–
COC(=O)N1C(C2CC2)=Cc2ccccc2C1CC(C)=O (stereo not given),inactive,–
Cc1nn2c3ccccc3n(CCN3CCCCC3)c2nc1=O,"inconclusive: 28.2 µM [inhibitor, partial curve]",–
Cc1c(O)ccc(/C=N/Nc2nc(-c3cccnc3)nc3ccccc23)c1O,"inconclusive: 25.1 µM [inhibitor, single point]",–
CCCC1=C(C(=O)OCC)C(c2cccs2)C(C#N)=C(N)O1 (stereo not given),"inconclusive: 28.2 µM [inhibitor, single point]",–
Cc1ccc(N2CC(=O)N(NC(=O)c3sc4nc(C)cc(C)c4c3N)CC2=O)cc1,"inconclusive: 31.6 µM [inhibitor, partial curve]",–
O=[N+]([O-])c1ccc(C[n+]2cccc3c4ccccc4ccc32)cc1,"inconclusive: 4.47 µM [inhibitor, single point]",–
COc1ccc(Br)cc1/C=N/NC(=O)c1ccco1,"inconclusive: 28.2 µM [inhibitor, single point]",–
O=c1[nH]c(CSc2cccc[n+]2[O-])nc2ccccc12,–,inactive: 0.763%
COc1cc(OC)c2cc(-c3ccncc3)cnc2c1,"inconclusive: 35.5 µM [inhibitor, partial curve]",–
O=C(COC(=O)c1ccc(Oc2ccccc2)cc1)Nc1nnc(-c2ccccc2)o1,"inconclusive: 39.8 µM [inhibitor, single point]",–
O=C(O)CCSc1nc2ccccc2s1,–,inactive: -12.6%
Cc1nc(C)c(CC(=O)N2CCc3c([nH]c4ccccc34)C2c2ccccn2)s1 (stereo not given),"inconclusive: 39.8 µM [inhibitor, single point]",–
COC(=O)[C@H](Cc1ccccc1)NC(=O)O[C@@H]1C(=O)c2cc(OC)ccc2O[C@H]1c1cccc(OC)c1,"inconclusive: 35.5 µM [inhibitor, single point]",–
CCOC(=O)OC(C)OC(=O)C1N2C(=O)C(NC(=O)C(N)c3ccccc3)C2SC1(C)C (stereo not given),"inconclusive: 31.6 µM [inhibitor, partial curve]",–
Cc1cc(NC(=O)CSc2ccc3nnc(-c4cccc(F)c4)n3n2)no1,"inconclusive: 17.8 µM [inhibitor, partial curve]",–
